This is an account of results in PubChem BioAssay AID1845217 (Molecular Pharmacology Branch, DTP, NCI, 2023).

In this test the test system is VA-ES-BJ tumor spheroid viability. Put plainly: Anticancer human tumor VA-ES-BJ cell line growth inhibition.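 Note: spheroids exposed to compounds for seven days; percent of DMSO vehicle control viability so 100% = untreated growth.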 As to conditions: stronger effect = lower value, spheroids with HUVEC and MSC. The source says: Multicellular complex tumor spheroid response to DNA repair inhibitors in combination with DNA-damaging drugs
This study explores the anticancer activities of DNA-damaging drugs and inhibitors of DNA damage repair, both as single agents and in combinations. Complex tumor spheroids comprised of malignant cells, endothelial cells and mesenchymal stem cells served as an in vitro model for human solid tumors. This model system incorporates physiologically relevant features and patient-derived or established malignant cell lines with clinically relevant genetic alterations from many tumor types. Twenty-six patient-derived or established malignant cell lines were evaluated representing sarcoma, melanoma, small cell lung cancer (SCLC), non-small cell lung cancer (NSCLC), as well as bladder, ovarian and pancreatic cancers. The concentration ranges selected for each drug and investigational agent were based upon clinically achievable concentrations if the clinical Cmax of the agent was known.
Compounds. The drugs and compounds olaparib (NSC753686), talazoparib (NSC767125), berzosertib (NSC777718), elimusertib (NSC800525), nedisertib (NSC802822), VX-984 (NSC792969), AZD-1390 (NSC803789), temozolomide (NSC362856), topotecan (NSC609699), trabectedin (NSC813783), staurosporine (NSC755774), and gemcitabine (NSC613327) were obtained from the National Cancer Institute (NCI) Developmental Therapeutics Program Chemical Repository. The FDA-approved anticancer drug set is available from the Developmental Therapeutics Program at https://dtp.cancer.gov/organization/dscb/obtaining/available_plates.htm. […] The stock solutions were prepared in dimethyl sulfoxide (DMSO, Sigma-Aldrich, St. Louis, MO, cat. D2650) at 400-fold the tested concentration and stored at -70 degrees C. Prior to their use, the stock solutions were diluted in fresh medium and the final DMSO concentration in the assay was 0.25% (v/v). All drugs and investigational agents were tested over a range starting from a high concentration at or near the clinical Cmax and decreasing in half-log increments. If the clinical Cmax for an agent had not been determined, the highest concentration tested was 10 microM.
Cell Lines. The patient-derived cancer cell (PDC) lines: 156681-154-R-J1-PDC, 283228-195-R-J1-PDC, 287954-098-R-J1-PDC, 292921-168-R-J2-PDC, 349418-098-R-PDC, 425362-245-T-J1-PDC, 556581-035-R-J1-PDC, and BL0293-F563-PDC were received from the NCI Patient-Derived Models Repository (PDMR, https://pdmr.cancer.gov). The established cell lines HS-SY-2 (RRID:CVCL_8719), MPNST, and SYO-1 (RRID:CVCL_7146) were obtained from the Sloan Kettering Institute. The alveolar soft parts sarcoma cell line ASPS-1 (RRID:CVCL_S738) was established at the NCI and grown from internal seed stocks. The following established cell lines were purchased from the American Type Culture Collection (ATCC, Manassas, VA): G-401 (ATCC, cat. CRL-1441, RRID:CVCL_0270), SW982 (ATCC, cat. HTB-93, RRID:CVCL_1734), VA-ES-BJ (ATCC, cat. CRL-2138, RRID:CVCL_1785), NCI-H719 (ATCC, cat. CRL-5837, RRID:CVCL_1582), NCI-H196 (ATCC, cat. CRL-5823, RRID:CVCL_1509), NCI-H841 (ATCC, cat. CRL-5845, RRID:CVCL_1595), NCI-H1618 (ATCC, cat. CRL-5879, RRID:CVCL_1480), NCI-H1876 (ATCC, cat. CRL-5902, RRID:CVCL_1503), DMS 114 (ATCC, cat. CRL-2066; RRID:CVCL_1174), NCI-H211 (ATCC, cat. CRL-5824; RRID:CVCL_1529), and SW 1271 (ATCC, cat. CRL-2177, RRID:CVCL_1716). The small cell lung cancer cell line COR-L88 was purchased from Sigma-Aldrich (cat. 92031917-1VL, RRID:CVCL_1141). The non-small cell lung cancer cell lines NCI-H226 (RRID:CVCL_1544) and NCI-H322M (RRID:CVCL_1557) were established at the NCI and grown from internal seed stocks. Pooled donor human umbilical vein endothelial cells (HUVEC, Lonza, cat. CC-2519) and human mesenchymal stem cells (hMSC, Lonza, cat. PT-2501) were purchased from Lonza (Walkersville, MD).
Cell Culture. All cells were maintained in an incubator at 37 degrees C and 5% CO2 with 95% humidity. […]

Some entries of the source have several records that differ or are many. Only these are listed. An entry can have further records. Values given together repeat one measurement in other runs, samples, wells, individuals or studies. Marks such as (2×) give the number of equal values in this list.

As for `CC1COCCN1c1cc(-c2ccnn2C)c2ccnc(-c3ccn[nH]3)c2n1` (configuration not stated), the viability, T/C (compound alone 0.1 µM) is on record as 52.2%, 61.5%, 6.72%.

Take `CC[C@@]1(O)C(=O)OCc2c1cc1n(c2=O)Cc2cc3c(CN(C)C)c(O)ccc3nc2-1`: the viability, T/C (compound alone 0.00949 µM) is recorded as 68.5, 74.6, 91.1, 86.5, 81.2, 89.3, 94.5, 92.1, 99.9, 92.8% and the viability, T/C (compound alone 0.03 µM) is reported as 24.1, 35.7, 47.8, 39.7, 38, 50, 52.7, 48.1, 45.4, 44.3%.

As for `COc1cc2c(cc1O)CCNC21CSC2c3c(OC(C)=O)c(C)c4c(c3C(COC1=O)N1C(O)C3Cc5cc(C)c(OC)c(O)c5C(C21)N3C)OCO4` (configuration not stated), the viability, T/C is, setting by setting: (compound 30 pM) 99.5, 98.7, 99.4, 96.4, 104, 85.6 (2×), 92.6, 133, 81.8%; (compound 94.9 pM) 94.2, 96.3, 93.4, 96.8, 95.7, 83.4, 77.8, 72.3, 124, 82.2%; (compound alone 0.0003 µM) 42.2, 46.8, 48.8, 52.3, 42.9, 38.6, 36.6, 44.2, 60.5, 35.2%.

As to `Cn1nnc2c(C(N)=O)ncn2c1=O`, the viability, T/C (compound alone 31.6 µM) was 107 (2×), 92.3, 99.8, 116, 108, 89.5, 103, 88, 96.1%.
